In all, about 45,000 compounds went through this assay and about 65 (0.1%) were called active. The call rests on the fitted dose curve; in most records, active means well fitted activation curve with a large enough effect; inconclusive means small, poorly fitted or top-dose-only effect; inactive means no such curve, though single readings can be large or run the other way. Some of the results follow.
target: Galactocerebrosidase (Homo sapiens) (UniProt P54803); assay: A Novel Cell-Based Assay to Identify Small Molecules for B -Galactocerebrosidase; details: 145M-Twi-hGALC-G270D cells (Twitcher mouse brain line with human GALC G270D), HMU-beta-Gal fluorescence, 48 h; series mostly up to 57.5 µM; activation: at the top concentration; further: 0% is about no effect; nearly all actives have a fitted effect of over 65% in size
In short: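 Mutant human GALC (G270D), stably expressed in a Twitcher mouse brain cell line lacking endogenous GALC, is measured in live-treated cells via 6-hexadecanoylamino-4-methylumbelliferyl-β-galactoside hydrolysis (0.1 mM final, pH 5.2) with fluorescent detection.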

Chain of UniProt P54803 (P54803 whole entry, looked up): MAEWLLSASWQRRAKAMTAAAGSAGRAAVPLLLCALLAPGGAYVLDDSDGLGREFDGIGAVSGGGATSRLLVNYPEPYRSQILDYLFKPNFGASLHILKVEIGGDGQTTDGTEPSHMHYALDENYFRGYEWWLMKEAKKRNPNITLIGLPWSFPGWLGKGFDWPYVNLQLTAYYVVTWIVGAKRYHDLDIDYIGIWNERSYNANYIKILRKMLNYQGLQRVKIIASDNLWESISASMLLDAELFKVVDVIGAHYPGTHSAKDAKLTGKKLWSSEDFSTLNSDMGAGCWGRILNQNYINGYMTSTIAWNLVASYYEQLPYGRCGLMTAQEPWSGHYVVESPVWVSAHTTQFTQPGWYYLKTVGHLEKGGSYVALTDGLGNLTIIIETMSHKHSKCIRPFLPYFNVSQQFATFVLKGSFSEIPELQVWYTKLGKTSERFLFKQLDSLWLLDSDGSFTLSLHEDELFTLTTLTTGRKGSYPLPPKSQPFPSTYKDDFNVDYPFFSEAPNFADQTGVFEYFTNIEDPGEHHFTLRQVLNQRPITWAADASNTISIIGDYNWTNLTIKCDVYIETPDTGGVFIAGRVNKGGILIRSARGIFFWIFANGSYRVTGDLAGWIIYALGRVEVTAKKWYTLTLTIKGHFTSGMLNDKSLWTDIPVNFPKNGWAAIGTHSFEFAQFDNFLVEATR

activation, inactive:
CCOC(=O)c1sc(N2C(=O)c3oc4ccccc4c(=O)c3C2c2ccc(C(C)(C)C)cc2)nc1C (centres undefined) -6.97%
CCCCOc1ccc(C(=O)Nc2cc(-c3ccc(C)cc3)no2)cc1 -5.38%
CCOC(=O)COc1ccc(/C=C(\C#N)c2nc3ccc(C)cc3[nH]2)cc1OC -14.3%
Cc1ccc2c(CC(=O)Nc3cccc(C(F)(F)F)c3)coc2c1 -18%
CCc1nc2ccc(C(=O)NCc3ccc(OC)c(OC)c3)cc2nc1CC -11.6%
CC1(C)Cc2c(c(N3CCOCC3)nc3sc(C(=O)Nc4ccc(Cl)cc4)c(N)c23)CO1 -17%
Cc1cccc(NC(=O)CSc2nc(-c3cccc(C)c3)nc3c2Cc2c(CO)cnc(C)c2O3)c1 -11.8%
Cc1ccc2c(c1)-c1onc(C(=O)N(C)c3cccc(C(F)(F)F)c3)c1CO2 19%
Cc1ccc(CNC(=O)c2ccc3c(c2)CCN3S(=O)(=O)c2ccccc2)cc1 -10.6%
Cc1cccn2c3c(c(=O)nc12)C(c1cccc(F)c1)CC(=O)N3 (centres undefined) -4.48%
Cc1oc2ncn(CC(C)C)c(=O)c2c1C(=O)NCCc1ccc(Cl)cc1 -9.63%
CCC(=O)N1c2ccccc2CC1C(=O)N1CCN(c2cccc(OC)c2)CC1 (centres undefined) -24.3%
COc1ccc(Cn2c(C(=O)O)c(CNC3CCCC3)c3ccc(C)cc32)cc1 -4.86%
COc1ccc(CCNC(=O)c2csc3c2CCCCC3)c(OC)c1 17%
Cc1ccc(N(C)C(=O)CC(C)S(=O)(=O)c2ccc3c(c2)NC(=O)CO3)cc1 (centres undefined) -1.44%
CCc1ccc(NC(=O)Cn2ccn(-c3ccc(OC)cc3)c(=O)c2=O)cc1 -2.26%
Cc1ccc(C)c(NC(=O)CSc2c(C)cnc3c2c(=O)n(C)c(=O)n3C)c1 -5.56%
N[C@@H](Cc1c[nH]c2ccc(O)cc12)C(=O)O -9.41%
CN1C[C@@H]2C[C@H]1CN2c1cc2c(cc1F)c(=O)c(C(=O)O)cn2C1CC1 -12.4% [at 23.8 µM]
CCOc1ccc(OCC)c(NS(=O)(=O)c2c(C)[nH]c(=O)[nH]c2=O)c1 -11.5%
O=C(Cn1cnc2nc3c(cc2c1=O)CCCC3)N1CCN(c2cccc(C(F)(F)F)c2)CC1 -28.3%
Cc1ccc(C)c(NC(=O)Cn2ncc3c([nH]c4ccccc43)c2=O)c1 6.84%
CCOc1ccc(NC(=O)CSc2nc(-c3cccc(Cl)c3)nc3c2Cc2c(CO)cnc(C)c2O3)cc1 -5.59%
Cc1cccc(NC(=O)CC2Nc3cccc4cccc(c34)NC2=O)c1 (centres undefined) -26%
COC(=O)c1cc2oc(C)cc2n1Cc1cc(C)ccc1C -11.6%
CN(c1ncnc2c1c(-c1ccccc1)cn2-c1cccc(Cl)c1)C1CCCCC1 2.34%
Cc1ccc(-c2nnn3c2nc(NCCc2ccccc2)c2ccccc23)cc1 -7.41%
COc1cccc(NC(=O)CCc2nc(-c3ccc(C(C)(C)C)cc3)no2)c1 -13.3%
COCCN(Cc1ccco1)C(=O)Cn1ncc2c([nH]c3ccccc32)c1=O -0.592%
Cc1cc2c(cc1S(=O)(=O)CCC(=O)N(C)C1CCCCC1)OCC(=O)N2 -1.46%
Cc1c(Cl)cccc1NC(=O)N1CCC(CN2CCOCC2)CC1 -17.5%
OCc1ccc(Cl)cc1Cl -11.3%
Cc1ccc(C)c(C(=O)CSc2nc(-c3ccccc3)nc3c2CCCC3)c1 -7.62%
CCc1ccc(CN(Cc2ccco2)C(=O)COc2ccccc2Cl)cc1 -32.3%
Cc1cccc(-n2c(=O)c3c(c4cc(C)ccc4n3C)n(C)c2=O)c1 -2.37%
NC(=O)CN1C(=O)C2(SCC(=O)N2c2cccc(F)c2)c2ccccc21 (centres undefined) -19.7%
COc1ccc(C2C(C(=O)Nc3ccc(C)cc3C)=C(C)Nc3nc(SC)nn32)cc1OC (centres undefined) -0.143%
CC(=O)OCc1cnc(C)c2oc(=O)c(C(=O)Nc3cc(F)ccc3C)cc12 -1.81%
O=C(c1ccc([N+](=O)[O-])cc1)N(Cc1ccco1)c1ccccn1 -25.3%
COc1ccc(NC(=O)C2CCN(S(=O)(=O)c3cn(C)cn3)CC2)cc1Cl -1.1%
CC(C)C(=O)Nc1nnc(S(=O)(=O)N(C)Cc2ccc(F)cc2)s1 -10.4%
CCOc1ccccc1NC(=O)C1CCCN(c2ncnc3onc(-c4ccc(F)cc4)c23)C1 (centres undefined) -9.21%
COc1ccccc1CNC(=O)c1ccc(-c2nc(CS(=O)c3ccc(C)cc3)c(C)o2)cc1 (centres undefined) -18.8%
COc1ccc(S(=O)(=O)Nc2ccc3c(c2)sc(=O)n3C)cc1Cl -34.4%
CCCCn1c(=O)c2oc3ccccc3c2n(Cc2ccc(OC)cc2)c1=O -0.323%
Cc1cc(C)cc(NC(=O)c2cn3c4c(ccc(Cl)c4c2=O)OC(C)C3)c1 (centres undefined) -5.3%
Cc1ccc(NC(=O)c2nnn(Cc3ccccc3)c2N)cc1C 10.4%
CCOC(=O)c1cc2c(=O)n3ccccc3nc2n(Cc2ccco2)c1=NC(=O)c1ccc(Br)cc1 -15.5%
O=C(CSc1oc(-c2ccccc2)nc1S(=O)(=O)c1ccc(Br)cc1)c1ccccc1 -6.32%
COc1ccc(NC(=O)c2ccco2)cc1NC(=O)COc1cccc(C)c1C -12%
CCc1ccc(NC(=O)CN(C)S(=O)(=O)c2ccc3c(c2)c(=O)n(C)c(=O)n3C)cc1 -6.34%
COc1ccc(C)cc1NC(=O)COc1cc(=O)n(C)c2ccccc12 -5.75%
Cc1ccccc1-c1nc(SCC(=O)NCc2ccc(F)cc2)c2c(=O)n(C)c(=O)n(C)c2n1 0.86%
O=C(Nc1ccc(Br)cc1)c1ccc(F)c(S(=O)(=O)NC2CCCCCC2)c1 -7.78%
Cc1cccc(C)c1NC(=O)Nc1csc2c1CCCC2 -15%
O=C(CCn1nc(-c2ccccc2)c2ccccc2c1=O)Nc1ccccc1 -12%
Cc1ccc(-n2nc(CO)c(C(=O)NCc3ccccn3)n2)cc1 -6.85%
Cc1ccc2nc(N(CCCN(C)C)C(=O)c3ccco3)sc2c1 -17.9%
COc1ccc(-c2nc(-c3cc4cc(Br)ccc4oc3=O)cs2)cc1 -16%
COc1ccccc1N1CCN(c2nc3ccccc3n3cnnc23)CC1 2.06%
Cc1ccc2c(c1)N(C(=O)N1CCC(C(=O)NCc3cccc(Br)c3)CC1)CCO2 -6.99%
COc1ccc(OCc2ccc(-c3nc(C#N)c(N4CCN(c5ccccc5)CC4)o3)o2)cc1 -16.8%
Cc1cc(-c2ccc(C)c(S(=O)(=O)Nc3cccc(C)n3)c2)on1 -10.9%
CC(=O)Nc1ccc(NC(=O)c2cc(=O)c3ccccc3o2)cc1 11%
CCc1ccc(-n2nnc(-c3nsc(NC(=O)c4ccccc4Cl)n3)c2C)cc1 -13.5%
O=C(COc1ccccc1F)OCc1cc(=O)n2nc(C3CCCCC3)sc2n1 1.94%
CCN(CC)c1cc(C)c2cc(NC(=O)c3cccc(OC)c3OC)ccc2n1 -5.33%
COc1cccc2cc(S(=O)(=O)c3ccc(F)c(C)c3)c(=O)oc12 -16.8%
COC(=O)c1sc2cccc(F)c2c1S(=O)(=O)N1CCN(c2cccc(OC)c2)CC1 -8.7%
CCOC(=O)c1cc(-c2ccccc2)n(CCC(=O)NCc2ccccc2Cl)c1C -13.7%
COc1ccc(Nc2nc3ccccc3nc2NS(=O)(=O)c2ccc(C)cc2)c(OC)c1 2.77%
Cc1nc2nc(SCC(=O)N(C)Cc3ccccc3)nn2c(C)c1Cc1ccccc1Cl -4.89%
Cc1c(Cl)cccc1-c1ccc(CNCCCSc2nnnn2C)o1 -19.3%
CCc1ccc(S(=O)(=O)c2cn(C)c3cc(N4CCOCC4)c(F)cc3c2=O)cc1 -13.2%
Cc1nnc(N2CCCC(C(=O)NCc3ccccc3)C2)c2nn(-c3ccccc3)c(C)c12 (centres undefined) -7.42%
CCCCN(C)CCNC(=O)C1CCCN(S(=O)(=O)c2cccc3nsnc23)C1 (centres undefined) -4.16%
Fc1ccc(N2CCN(c3nc4ccccc4c4nc(-c5cccnc5)nn34)CC2)cc1 5.51%
O=C1Nc2ccccc2Oc2cc(Oc3cccc(Cl)c3)ccc21 -1.11%
CCOc1ccc(NC(=O)c2c(C)nn(-c3ccc(F)cc3)c2-n2cccc2)cc1 -6.49%
CCOC(=O)C1CCN(CC(=O)Nc2cc(C)c3c(=O)oc4ccccc4c3n2)CC1 -0.98%
Cc1cn2c(=O)cc(COc3cccc(NC(=O)c4ccc(C(C)(C)C)cc4)c3)nc2s1 -26.6%
Cc1ccc(NC(=O)CN(C)S(=O)(=O)c2ccc3c(c2)n(C)c(=O)c(=O)n3C)cc1F -14.2%
Cc1nn(-c2ccccc2)c2nc(C3CC3)cc(C(=O)Nc3ccc(F)cc3)c12 -5.7%
O=C(Nc1ccc(OCc2cc(=O)n3c4c(sc3n2)CCCC4)cc1)c1cccc(F)c1 -11.4%
O=C(CCn1cnc2onc(-c3ccc(F)cc3)c2c1=O)Nc1ccc(F)c(Cl)c1 -15.3%
CCc1ccc(NC(=O)Nc2cn(C)c(=O)c3ccccc23)cc1 5.82%
O=C(NC1CCCC1)c1ccc2c(=O)n(Cc3ccccc3)c(SCc3ccc([N+](=O)[O-])cc3)nc2c1 -29%
CCc1ccc(CNC(=O)Cn2ccc3cc(S(=O)(=O)N4CCCCCC4)ccc32)cc1 2.24%
CCN(CCCNC(=O)CSc1cc(=O)n(CC)c2ccccc12)c1ccccc1 -13.9%
Clc1ccc(Cn2c(CN3CCCC3)nc3ccccc32)cc1 -18.9%
COc1cccc(CNC(=O)CN2C(=O)CCc3cc(S(=O)(=O)N4CCOCC4)ccc32)c1 1.13%
CCc1ccc(-n2nc(CO)c(C(=O)NC(C)c3ccc(Cl)cc3)n2)cc1 (centres undefined) -0.125%
CCOC(=O)N1CCN(Cc2nc3cc(NC(=O)CC)ccc3n2C(C)C)CC1 -2.3%
COc1ccc(OC)c2sc(N(Cc3cccnc3)C(C)=O)nc12 -14.1%
Cc1nc2ccn(Cc3cccnc3)c(=O)c2cc1C(=O)N1CCN(c2ccccc2F)CC1 -18.2%
Cc1c(C)n(Cc2ccccc2)c2ccc(C(=O)N3CCN(c4ccccc4F)CC3)cc12 1.44%
COc1ccc(SCc2cc(=O)c3ccc(C)c(C)c3[nH]2)cc1 -7.69%
O=C(NCCc1ccc(Cl)cc1)c1cc(-c2ccccc2)n[nH]1 -2.23%
Cc1ccc(Sc2ccc(N3CCCC(C(=O)Nc4ccc(Br)cc4)C3)nn2)cc1 (centres undefined) -11.4%

Reference: PubChem BioAssay AID1159614 (National Center for Advancing Translational Sciences (NCATS), 2016)
